# Assay results as given in PubChem BioAssay AID1745853 (National Center for Advancing Translational Sciences (NCATS), 2022).
# “And” between values parts separate entries of the source, which are not always exact repeats. Identical values can stand only once. This is one part of the list. The main result of the screen is listed elsewhere. These columns were measured beside it and carry no call.
# What was measured:
# Assay in all cases: Primary Screen for Target Class Profiling of Small Molecule Inhibitors of Methyltransferases
# [1] = biological target: Glycine N-methyltransferase (Homo sapiens) (UniProt Q14749); settings: purified enzyme, MTase-Glo SAH luminescence; measured here: GNMT inhibition; at 40 µM; stronger effect = lower value
# Summary of the method: (§1)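 Each enzyme was assayed with SAM and its substrate. SAH formation detected by MTase-Glo luminescence; single-point 40 uM screen[…].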
# [2] = biological target: Guanidinoacetate N-methyltransferase (Homo sapiens) (UniProt Q14353); settings: purified enzyme, MTase-Glo SAH luminescence; measured here: GAMT inhibition; at 40 µM; stronger effect = lower value
# Summary of the method: as §1
# [3] = biological target: Histamine N-methyltransferase (Homo sapiens) (UniProt P50135); settings: purified enzyme, MTase-Glo SAH luminescence; measured here: HNMT inhibition; at 40 µM; stronger effect = lower value
# Summary of the method: as §1
# [4] = biological target: Nicotinamide N-methyltransferase (Homo sapiens) (UniProt P40261); settings: purified enzyme, MTase-Glo SAH luminescence; measured here: NNMT inhibition; at 40 µM; stronger effect = lower value
# Summary of the method: as §1
# [5] = biological target: Phenylethanolamine N-methyltransferase (Homo sapiens) (UniProt P11086); settings: purified enzyme, MTase-Glo SAH luminescence; measured here: PNMT inhibition; at 40 µM; stronger effect = lower value
# Summary of the method: as §1
# % is set by controls: 0 for no effect and ±100 for the full control effect.
SMILES,"activity change, negative = inhibition [1]","activity change, negative = inhibition [2] [%]","activity change, negative = inhibition [3]","activity change, negative = inhibition [4]","activity change, negative = inhibition [5]"
CCC(C)NC(=O)c1ccc2c(=O)n(CC(C)C)c3nn(C)c(=O)n3c2c1 (stereo not given),-1.69%,-4.7,0.493%,-6.08%,-6.12%
Cc1ccc(N2C(=O)c3cc4sccc4n3CC2(C)C(=O)NC2CCCCC2C)c(C)c1 (stereo not given),2.77%,0,5.67%,0.582%,-0.335%
COc1ccc(CNC(=O)c2cc3n(n2)CC(C)(C(=O)NC2CCCCC2)N(C)C3=O)cc1OC (stereo not given),3.01%,1.99,-5.19%,-0.993%,-3.7%
COc1ccc(NS(=O)(=O)c2cc3c(cc2Cl)n(C)c(=O)n3C)c(OC)c1,12.4%,1.14,2.11%,4.1%,8.94%
O=C(CSc1nnc2[nH]c(=O)c(-c3ccc(Cl)cc3)nn12)Nc1cccc(F)c1,3.31%,0,4.38%,-3.61%,-1.62%
Clc1ccccc1C1Nc2ccc(Br)cc2C2C=CCC21 (stereo not given),-11%,-2.18,-7.25%,-7.8%,-13.4%
Cc1cc(C)n2nc(C)c(C(=O)N3CCCC(c4cccc(C(=O)O)c4)C3)c2n1 (stereo not given),-2.94%,-2.28,1.67%,-10.2%,-0.248%
C=CCn1c(=O)c2ccc(C(=O)NCC(C)C)cc2n2c(=O)n(CC(=O)NC(C)CC)nc12 (stereo not given),5.83%,0,9.37%,5.97%,4.34%
COc1ccc(CC(=O)N2CCC3(CC2)C(=O)NCN3C(=O)C2CCCC2)cc1,-1.28%,-2.12,-0.162%,-3.23%,-2.6%
CC(C)Cn1c(=O)c2ccccc2n2c(CCC(=O)Nc3cccc(Cl)c3)nnc12,-6.54%,0,-3.07%,-22.1%,-7.95%
O=C1CN(Cc2cccc(Cl)c2)S(=O)(=O)c2ccccc2N1Cc1cccc(F)c1,16%,0.297,10.5%,-0.012%,4.63%
CCC(C)NC(=O)CSc1nnc2n(CCc3ccccc3)c(=O)c3ccccc3n12 (stereo not given),0.566%,4.21,7.79%,-5.86%,0.607%
CCN1CCN(CCNC(=O)c2cc3n(n2)CC(C)(C(=O)NCc2ccc(F)cc2)N(C)C3=O)CC1 (stereo not given),3.23%,-3.55,-4.41%,-2.35%,-2.04%
COc1ccc(-c2nnc(-c3ccccc3)o2)cc1S(=O)(=O)N1CCCc2ccccc21,4.19%,2.24,2.43%,-1.16%,4.47%
COc1ccccc1-c1cn2c(n1)CO[C@@H](CNC1CCOCC1)C2,-4.94%,-4.04,-15.1%,-9.24%,-4.49%
COCCCN1C(=O)c2ccc(-c3ccccc3)n2CC1(C)C(=O)NC1CCCCCC1 (stereo not given),1.19%,3.24,-1.98%,-5.02%,-0.908%
COC(=O)CNC(=O)c1nc(-c2ccc(Cl)nc2)c2ccccn12,-14.8%,-4.23,-4.06%,-15.6%,-9.5%
C[C@H](O)[C@H](O)[C@H]1CNc2nc(N)[nH]c(=O)c2N1,-1.22%,-6.97,5.27%,-13.5%,-1.41%
O=C(Cn1ccc2cc(S(=O)(=O)N3CCCC3)ccc21)NCc1ccc(F)cc1,0.999%,-0.082,-1.51%,-4.08%,-3.89%
COc1cccc(-c2nnc3n(Cc4ccccc4)c(=O)c4ccccc4n23)c1OC,5.79%,3.01,6.45%,12.5%,2.53%
O=C(CCn1ccc2cc(S(=O)(=O)N3CCCCC3)ccc21)NCCc1cccs1,5.48%,1.06,3.09%,4.27%,1.83%
COc1ccc(N2C(=O)c3cc4ccc(OC)cc4n3CC2(C)C(=O)NC2CCCCC2)cc1 (stereo not given),2.47%,0.35,5.38%,7.54%,2.2%
COc1cc(F)c(C(C)C)cc1-c1ccc(C(F)(F)F)cc1CN1C(=O)OC(c2cc(C(F)(F)F)cc(C(F)(F)F)c2)C1C (stereo not given),1.75%,-10.5,9.52%,-34.2%,-3.78%
COc1ccc(CCCN2C(=O)O[C@@H]3CN(S(=O)(=O)N(C)C)C[C@@H]32)cc1,0.81%,2.29,3.9%,0.098%,2.94%
CCS(=O)(=O)N1CCN(c2ccc(Nc3ncc(C(N)=O)c(NC4CC4)n3)cc2)CC1,-16.8% and -7.07%,2.42,4.45% and 2.62%,-127% and -87.1%,-14.3% and -5.48%
CC(CC(C)O[C@@H]1O[C@H](CO)[C@@H](O)[C@H](O)[C@H]1O)OC(=O)/C=C/c1ccc(O)cc1 (stereo not given in full),3.94%,5.09,2.62%,-6.13%,6.08%
COc1ccc(-c2onc(C)c2C(=O)NCCCCc2ccccc2)cc1,-2.19%,-0.084,1.14%,-6.12%,-1.91%
Fc1cccc2c1NC(c1ccc(Br)cc1)C1CC=CC21 (stereo not given),-7.6%,3.18,0.244%,-10.8%,-2.03%
CCOc1cccc(-c2nc(C(=O)Nc3ccc(F)cc3)cs2)c1,-3.84%,-1.95,-2.17%,-5.07%,-8.87%
